From the RNAGym collection of RNA variant scans (doi:10.7554/elife.90254) come the findings set out here.

The source gives no read counts; variants with many changes may rest on few reads.

First the molecules themselves.
B1: LINE1-mini (parent)
chain: GGCAGAGCUCAACACAGCGUGGCAAAGUGGCUGUGGCUAGACUGCC

In the data set the parent is B1. Kind of data set: self-cleavage, relative activity (ratio to wild type); higher = more cleavage; in vitro, sequencing; the parent is a self-cleaving ribozyme.
For the variant C3U G7U C13A G35A, the self-cleavage turned out to be 0.15.

With C3U G5A A14G G17C G19A, the self-cleavage was determined as 0.07.

On to C3U G30U C37G, for which the self-cleavage turned out to be 0.04. With C3U G5U U38G C45G the figure was 0.07; with C3U C18A U32C C42G, 0.06; with C3U G7U A14G, 0.38.

Turning to C3U G17A U38A, the self-cleavage amounted to 0.12. Then C3U U9C C15G G17C G21C G27C G29A C42G, with 0.01; and A4C A6G C31U G36C C42G, with 0.01. C3U G36A G40U G44C: the self-cleavage came out at 0.09. As for C3U C23U U38G, the self-cleavage came out at 0.03. C3U G7C C8U: the self-cleavage amounted to 0.84. With C3U C23G A26U the figure was 0.22. As for C3U G19A G21U G36A, the self-cleavage turned out to be 0.05. Regarding C3U G5U A12C C15A C37G, the self-cleavage was 0.05. Consider C3U U28C C45A, for which the self-cleavage is 0.09. With C3U G5U G19U A39U the figure was 0.03. Turning to C3U G22C C31G C42U, the self-cleavage was 0.18.

C3U G27A C31A: the self-cleavage is 0.26. Then C3U U20A G44C, with 0.25; and C3U C23G G27A, with 0.33; and A4C A6G A14U U32G, with 0.08.

As for C3U C13U C31G C46A, the self-cleavage came to 0.06. Then C3U G27A C46A, with 0.18; and C3U G7A U38C, with 0.04. Then C3U G35U C42A U43A C45G C46A, with 0.14; and C3U G21U U32G, with 0.14; and C3U G19U G27U U43A, with 0.03. Then C3U G7U U38C, with 0.19; and C3U G5U G36C, with 0.03; and C3U C18U A25G C42A, with 0.03. As for C3U G5A A25C C45A, the self-cleavage turned out to be 0.05.

Take C3U G7U U9A C13U U20A U34C C37U: the self-cleavage turned out to be 0.15. With C3U U20A U34A A39U the figure was 0.07; with C3U U9G A11U A41U, 0.02; with C3U G30U G33U, 0.09.

As to C3U G22A C23U A41U C46A, the self-cleavage is 0.36. With C3U G27A C42G the figure was 0.02; with C3U G17A U20A C23A, 0.03. Then C3U G5C C8G C13U G17C G30A G33C C46G, with 0.06; and C3U G7A C18A C31U C37U, with 0.02. Then C3U C15U C23U, with 0.32.

As to C3U G21A U38G G44C, the self-cleavage was 0.05. C3U U28A G33A: the self-cleavage is 0.05. Then C3U U28A G33C, with 0.09; and C3U U9A A14U G30U C31A G40U G44U, with 0.05; and C3U G5U G17U G35U, with 0.1. With C3U U9C C10A U20C the figure was 0.04. C3U G29C U38C U43C: the self-cleavage came to 0.02. Then C3U G19U C23A, with 0.1; and C3U U9A U34A, with 0.07. Then C3U C18U G30U, with 0.55. Then C3U C15A G35A U38C, with 0.01; and C3U C23G C42G, with 0.02. As for C3U G7C A14G A25U G29U, the self-cleavage is 0.07. Regarding C3U G5U G7C G33U, the self-cleavage worked out at 0.02. Then C3U G21A A25U U32A A41C G44C, with 0.04; and C3U U9A G22A, with 0.26; and C3U G22A U32C U43G, with 0.08. With C3U G19A C23U the figure was 0.24. Consider C3U G7A A25G C42A C46U, for which the self-cleavage worked out at 0. Then C3U U28A C37G, with 0.04; and C3U G7A G44U C46U, with 0.06.

As for C3U G21U A25G C37G, the self-cleavage is 0.01. Then C3U G7U G19C G30C, with 0.06. Then C3U G21U A41C, with 0.03; and C3U G5C A24G, with 0.18. Then C3U G17C G27C, with 0; and C3U G33U U34C A41C, with 0.07; and C3U U20C A25G G29A U32G, with 0.05.

For C3U G7A G33A U34C, the self-cleavage amounted to 0.17. Consider C3U U9C A16G, for which the self-cleavage worked out at 0.98. For the variant C3U G7A A12G G19U A25G, the self-cleavage turned out to be 0.05.

With A4C A6G A26U C31U A41U, the self-cleavage came out at 0.01.

Turning to C3U U9C C13G C15A G27C, the self-cleavage amounted to 0.03. With C3U G40C A41U the figure was 0.04; with A4C A6C C8G A26C, 0.03; with C3U G7C U20A, 0.16. As for C3U U9G A16U C23U, the self-cleavage was determined as 0.03. Then C3U C23A G44C C46G, with 0.16; and C3U C15A G44C, with 0.11. Take C3U U9C C13G A14U G29A: the self-cleavage amounted to 0.04. For C3U G7U C8U U9A C23A, the self-cleavage is 0.33. With C3U U9G A12U G19A U28C U38C G40C C42A, the self-cleavage was 0.02. Regarding C3U G7U G19U U43A, the self-cleavage turned out to be 0.63. With A4C A6C G7C A24G G44U the figure was 0.14; with C3U G5C G36U, 0.86; with A4C A6G G7A G22C, 0.3. With C3U C13G G40U the figure was 0.04. As to C3U C15A G17C C31U A39G A41U, the self-cleavage stood at 0.02. Then C3U G5A G7U C18G A25U, with 0.17. Then C3U G5C G44A, with 0.15; and C3U G7C G27A, with 0.07. In the case of C3U G27A G44A, the self-cleavage is 1.03. Regarding C3U G27U A39U, the self-cleavage stood at 0.06.

For the variant C3U G5A C18G, the self-cleavage was 0.05. Consider C3U U20A C23A U32A, for which the self-cleavage is 0.03.

In the case of C3U U32C G40C, the self-cleavage was determined as 0.08. With C3U G29U G33C C45G the figure was 0.03; with C3U C13G G21C C37U U38C, 0.33; with C3U U9A C18U G22C G27A, 0.03.

Turning to A4C A6C A12C U32A A39U, the self-cleavage is 0.02. For C3U G5U U9A, the self-cleavage is 0.16.

In the case of C3U G5U U9G, the self-cleavage came out at 0.47. Then C3U C13G C37U G40C, with 0.14. Then C3U G19C U20G G21A U32A U34A A41G, with 0.01. For C3U C42A G44C C45U, the self-cleavage was found to be 0.06. With C3U G22U U34A the figure was 0.14. Turning to C3U C13U G44C, the self-cleavage came to 0.08.

For the variant C3U C15G U34C C37G, the self-cleavage was found to be 0.06. For C3U C18A G22U G29C G35U, the self-cleavage stood at 0.55. For C3U G7U U9A A16U A26C, the self-cleavage came to 0.04. With A4C A6G U32C A39U G40A C42G U43G the figure was 0.01. For the variant C3U G40C A41C C46G, the self-cleavage was determined as 0.11.

C3U G7A C23A U32G: the self-cleavage amounted to 0.07. Then C3U C18A A25C U32A C37G U43A, with 0.01; and A4C A11C A26C G27U C46A, with 0.06. As to C3U G22C C37A C46G, the self-cleavage came out at 0.03. Consider A4C A6U C10A G35A G36U, for which the self-cleavage stood at 0.13. For the variant C3U G17C G44C C45A, the self-cleavage was determined as 0.08. With A4C A6U G19A C23A C31A the figure was 0.01; with C3U C13G C23U G27U, 0.11.

In the case of C3U C13G A25U U38G, the self-cleavage is 0.

Consider C3U G5C A12U, for which the self-cleavage was 0.14. Regarding C3U G7C A16U C37U, the self-cleavage was determined as 0.02. In the case of A4C A6G G30A, the self-cleavage came to 0.15.

C3U U20C U34A G35A: the self-cleavage came to 0.02.

In the case of C3U U9G A12U G19C U20C A39G, the self-cleavage came out at 0.02. With A4C A6C U34G the figure was 0.04. C3U C23A G36A C42U: the self-cleavage turned out to be 0.11. With C3U C18A A26G C42G G44A the figure was 0.03; with C3U U9G C18G A24U, 0.11. Then C3U G29U G30A, with 0.97; and C3U U28A U34A, with 0.05; and C3U G5U G44A, with 0.06. With A4C A6U C8A A25U the figure was 2.92; with C3U U9G G19U U20C, 0.11; with C3U C42G C45G, 0. As to C3U U9A G29A G40C C42U, the self-cleavage came to 0.06. Then C3U G21U G27U, with 0.26. Regarding C3U G33U G44A, the self-cleavage was determined as 0.09. With C3U C15U G21U the figure was 0.27. Then C3U G29A C45G, with 0.07. For the variant C3U G7U C8G G36A G40C, the self-cleavage stood at 0.05. As for C3U G7A G17U C42U G44C, the self-cleavage was determined as 0.08. Then C3U C31A C37A, with 0.05. Then C3U U9G G36A A39G U43G C45U, with 2.12; and C3U C23A C42A, with 0.14. With C3U U34C C37U A39C C46A the figure was 0.05; with C3U G7U G19U, 0.14; with C3U G21U G40C, 0.05. In the case of C3U U9A G36C, the self-cleavage worked out at 0.03.

For the variant C3U U28A G35U, the self-cleavage came to 0.13. Regarding A4C A6G U32G U43A, the self-cleavage stood at 0.19. Then C3U G5C G21A, with 0.51; and C3U G17C C18A, with 0.06; and C3U G22A U28G C37G A41U, with 0.02. With C3U U9A U38C the figure was 0.03; with A4C A6U A14C, 0.03; with C3U G17A G36U, 0.08. Then C3U G17U C18G, with 0.12; and C3U G5U A12U C13U C37G, with 0.54. As for C3U G22U G33U C42A, the self-cleavage amounted to 0.15. On to C3U C18A G22C U28G, for which the self-cleavage was 0.26. Then C3U U28C G30U, with 0.12; and C3U U28G G36U, with 0.08. Turning to C3U G5U G30C C45G, the self-cleavage is 0.08.
